According to PubChem BioAssay AID624173 (National Center for Advancing Translational Sciences (NCATS), 2012):
Screen size: about 410,000 compounds; about 490 (0.12%) were called active. Inconclusive means that the source gave no clear call. Such entries were picked first, then a sample of the others. The call rests on the fitted dose curve; in most records, active means well fitted inhibition curve with a large enough effect; inconclusive means small, poorly fitted or top-dose-only effect; inactive means flat fitted curve, though single readings scatter. Potencies of inconclusive entries are doubtful fits and often do not repeat.

Each compound was assayed against pyruvate kinase (Trypanosoma brucei) (UniProt Q57TT1) (assay: qHTS of Trypanosoma Brucei Inhibitors). Conditions: TbPYK enzyme, Kinase-Glo Plus ATP luminescence, 45 min; series mostly up to 76.8 µM.
Summary of the method: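 In this concentration-response screen, enzyme-free wells defined baseline while DMSO plates tracked drift. Each reaction combined TbPYK, substrate, compound and 130 uM ADP for 45 min at room temperature. Kinase-Glo Plus luminescence gave the signal.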
Further: nearly all actives have a fitted effect of over 50% in size.
Potency means the concentration at half of the fitted maximal effect; tags describe the fitted curve by direction and shape.

SMILES | Potency
Cc1cccc(-n2c(=S)[nH]c3sc4c(c3c2=O)CCc2ccccc2-4)c1 | inconclusive: 25.1 µM [inhibitor, partial curve]
N#Cc1c(N)n(CCNC(=O)c2ccccc2)c2nc3ccccc3nc12 | inactive
Cc1cc(CN(C)C(=O)c2ccc3nc(Cc4ccccc4F)oc3c2)on1 | inactive
Cc1ccc(NC(=O)CSCC(=O)Nc2ncc3c(n2)CC(c2ccco2)CC3=O)cc1 (centres undefined) | inactive
COc1ccc(NC(=O)CSc2nccn2Cc2ccco2)cc1 | inactive
O=C1NC(=O)N(CCc2ccc(F)cc2)C(=O)/C1=C/c1ccco1 | inconclusive: 35.5 µM [inhibitor, partial curve]
O=C(O)/C=C/C(=O)c1ccc2c(c1)NC(=O)CO2 | inconclusive: 25.1 µM [inhibitor, partial curve]
Cn1c(=O)[nH]c(=O)c2c1nc(SCCO)n2CCCc1ccccc1 | inconclusive: 35.5 µM [inhibitor, partial curve, poor fit]
O=C(CSc1nc2ccccc2s1)Nc1cc(C(=O)O)cc(C(=O)O)c1 | inconclusive: 7.94 µM [inhibitor, partial curve]
O=C(CCS(=O)(=O)c1nc(-c2cccs2)cc(C(F)(F)F)n1)Nc1ccc(OC(F)(F)F)cc1 | inconclusive: 28.2 µM [inhibitor, single point]
COc1ccc(Cc2n[nH]c(=S)n2N)cc1OC | inconclusive: 35.5 µM [inhibitor, single point]
Cc1cc2ncc(C(=O)Nc3ccsc3C(=O)O)c(C)n2n1 | inconclusive: 31.6 µM [inhibitor, single point]
Cc1cc(N=Cc2c(O)ccc3cc(Br)ccc23)no1 | inconclusive: 7.08 µM [inhibitor, full curve]
CC1(C)CC(=O)C(CSC(=O)c2ccccc2)C(=O)C1 | inconclusive: 10 µM [inhibitor, partial curve]
Cc1cccc(-c2nc(CS(=O)CC(=O)NCC3CCCO3)c(C)o2)c1 (centres undefined) | inactive
Cc1ccc(-n2c(C3CC3c3ccc(Cl)cc3)n[nH]c2=S)cc1 (centres undefined) | inconclusive: 28.2 µM [inhibitor, partial curve, poor fit]
S=c1[nH]nc(C2CCCCC2)n1/N=C/c1ccccc1Cl | inconclusive: 15.8 µM [inhibitor, partial curve, poor fit]
Nc1ccccc1SSc1ccccc1N | inconclusive: 17.8 µM [inhibitor, partial curve, poor fit]
COc1cc(OC)cc(OC(=O)C2CCN(C(=O)c3ccc(F)cc3)CC2)c1 | inconclusive: 35.5 µM [inhibitor, single point]
COc1ccccc1C(=O)Oc1c(Sc2ccccc2)c(C)nn1C(C)(C)C | inactive
CCN1C(=O)CSC1=Nc1ccc(C(=O)O)cc1 | inactive
COc1ccc(CNc2nc(SCc3ccc(Cl)cc3)nc3ccccc23)cc1 | inactive

SMILES | Potency
CC(c1ccccc1)n1c(-c2ccncc2)n[nH]c1=S (centres undefined) | inconclusive: 14.1 µM [inhibitor, partial curve]
O=c1c2c3c(sc2[nH]c(=S)n1Cc1ccco1)CCC3 | inconclusive: 39.8 µM [inhibitor, single point]
O=c1nccc(N/N=C/c2ccccc2O)[nH]1 | inconclusive: 25.1 µM [inhibitor, partial curve, poor fit]
CC1=NOC(=O)/C1=C\c1ccc2c(c1)OCO2 | inconclusive: 28.2 µM [inhibitor, partial curve]
O=C(CSc1nnc(-c2ccccn2)o1)Nc1ccccc1C(F)(F)F | inactive
C=CCn1c(SCc2n[nH]c(=S)n2-c2ccccc2)nnc1-c1ccccc1 | inconclusive: 15.8 µM [inhibitor, partial curve, poor fit]
CCNc1nc(NC(C)C)nc(SCCOC(=O)c2ccccc2)n1 | inactive
O=C(O)C1C2C=CC(O2)C1C(=O)Nc1ccc(S(=O)(=O)Nc2ccccc2)cc1 (centres undefined) | inconclusive: 31.6 µM [inhibitor, partial curve]
CCOCC(=O)NCc1ccc2c(c1)cc(C)n2C | inconclusive: 28.2 µM [inhibitor, partial curve, poor fit]
Cc1oc2cc(O)ccc2c(=O)c1Oc1ccccc1 | inconclusive: 28.2 µM [inhibitor, single point]
Cc1ccc(C)c(OCC(=O)NCCNC(=O)COc2cc(C)ccc2C)c1 | inconclusive: 39.8 µM [inhibitor, single point]
COc1ccc(N2CCN(C(=O)Cc3ccc(OC)c(OC)c3)CC2)cc1 | inconclusive: 31.6 µM [inhibitor, single point]
Cc1ccc2c(c1)-c1c(ssc1=S)C(C)(C)N2C(=O)c1ccco1 | inconclusive: 17.8 µM [inhibitor, partial curve, poor fit]
COc1cc(OC)cc(-c2n[nH]c(=S)n2-c2ccc3c(c2)OCO3)c1 | inconclusive: 1.58 µM [inhibitor, full curve, poor fit]
COc1cccc(/C=N/n2c(C3CCCCC3)n[nH]c2=S)c1 | inconclusive: 2.24 µM [inhibitor, full curve]
S=c1[nH]c(-c2cccs2)cn1-c1ccccc1 | inconclusive: 3.98 µM [inhibitor, full curve]
CCCCn1c(-c2nn(C)cc2Cl)n[nH]c1=S | inconclusive: 15.8 µM [inhibitor, partial curve]
CSc1nsc(SC)c1NC(=O)OC1CCCCC1 | inconclusive: 39.8 µM [inhibitor, single point]
COc1ccc(Cl)cc1C(=O)Nc1ccccc1N1CCN(C(=O)C(C)C)CC1 | inconclusive: 1 µM [inhibitor, full curve, poor fit]
COc1ccc(NC(=O)O/N=C2/CCCc3ccc(OC)cc32)cc1 | inactive
COc1ccc(-c2cc(C(=O)N/N=C/c3ccc(OC)c(COCC(F)(F)C(F)F)c3)c3ccccc3n2)c(OC)c1 | inconclusive: 28.2 µM [inhibitor, partial curve, poor fit]
NC(=O)N/N=C\c1cc(Br)ccc1O | inactive
